# Source: PubChem BioAssay AID686979 (National Center for Advancing Translational Sciences (NCATS), 2013)
# Hit rate of the full screen: of about 420,000 compounds, about 50,000 (12%) were called active. The inconclusive results got no clear call from the source; some entries with a clear call stand among them for comparison. Calls come from the whole dose curve; as a rule, active = well fitted inhibition curve with a large enough effect; inconclusive = small, poorly fitted or top-dose-only effect; inactive = flat fitted curve, though single readings scatter. No potency is given beside an inconclusive call; the fits are too rough.
# Assay: qHTS for Inhibitors of human tyrosyl-DNA phosphodiesterase 1 (TDP1): qHTS in cells in presence of CPT; note: nearly all actives have a fitted effect of over 55% in size
# Conditions: chicken DT40 Tdp1-/-;hTDP1 cells + 20 nM CPT, ATP luminescence, 48 h; activity change, negative = growth inhibition: at 46.2 µM (top of the series) unless noted
# Summary of the method: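 Chicken DT40 Tdp1-/- cells stably complemented with human TDP1 were seeded at 400 cells/well in medium containing 20 nM camptothecin, exposed to pin-transferred compounds, and grown at 37 °C for at least 48 hr. Viability was read as ATP luminescence.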
# % is set by controls: 0 for no effect and ±100 for the full control effect; potency is the fitted concentration of half-maximal effect; tags give direction and shape of the fitted curve.
SMILES,Potency,"activity change, negative = growth inhibition"
CS(=O)(=O)c1ccc(-n2nnc3ccccc32)c([N+](=O)[O-])c1,"inconclusive [inhibitor, single point]",
COc1ccc(-c2cc(C(=O)O)[nH]n2)cc1OC,inactive,
O=C(NC1CCCCC1)c1cc([N+](=O)[O-])[nH]n1,"inconclusive [inhibitor, single point]",
Cc1ccsc1/C=N/NC(=O)c1nnn(-c2nonc2N)c1C(C)C,"inconclusive [inhibitor, single point]",
CCc1nc2ccc(C(=O)NCCc3ccc(OC)cc3)cc2nc1CC,"inconclusive [inhibitor, partial curve]",
CC1(C)CC(=O)C=C(c2ccc(COC(=O)c3cccc(C(F)(F)F)c3)cc2)C1=O,"inconclusive [inhibitor, single point]",
C[C@H](NC(=O)COc1ccccc1)C(=O)OCC(=O)c1cc2ccccc2o1,"inconclusive [inhibitor, single point]",
CSc1ccccc1NC(=O)CN(C)C(=O)CCc1c[nH]c2ccccc12,"inconclusive [inhibitor, partial curve]",
O=C(NCc1ccccc1)C(C1CC1)n1c(=O)c(-c2ccco2)nc2ccccc21 (centres undefined),active: 13 µM,
COc1cccc(NC(=O)CN(C)C(=O)CC(NC(=O)c2ccccc2Cl)c2ccccc2)c1 (centres undefined),inactive,
Cc1cc2nnc(SCC(=O)Nc3cc(S(=O)(=O)N4CCOCC4)ccc3Cl)n2c2ccccc12,"inconclusive [inhibitor, single point]",
COc1cccc(-c2cc3nc(NCc4ccccc4OC)n(C)c(=O)c3s2)c1,active: 13 µM,
NS(=O)(=O)c1ccc(NC(=O)c2cccc3cc4ccccc4nc23)cc1,active: 5.8 µM,
Cn1c(NC(=O)/C=C\c2ccccc2)cc(=O)n(C)c1=O,inactive,
CCCN(C(=O)c1cc(Cl)nc2ccccc12)c1c(N)n(Cc2ccccc2)c(=O)[nH]c1=O,inactive,
CCCC[C@@H]1CCCO[C@@](C(=O)NCc2ccc(C)o2)(C(F)(F)F)C1,"inconclusive [inhibitor, single point]",
O=C(NCc1ccccc1)c1cccc(NC(=O)C2CCCCC2)c1,"inconclusive [inhibitor, single point]",
CCOc1ccc(CN(C(=O)c2ccccn2)c2ccc(OC)c(Cl)c2)cc1,"inconclusive [inhibitor, single point]",
Cn1cnnc1SCc1ccc(C(=O)N=Nc2c(O)n(C)c3ccccc23)cc1,"inconclusive [inhibitor, single point]",
Cc1cccc(-c2noc(CNS(=O)(=O)c3ccccc3)n2)c1,inactive,
COCCC(=O)N1CCCC(C(=O)c2ccc3c4c(cccc24)CC3)C1 (centres undefined),"inconclusive [inhibitor, single point]",
Cc1ccc(C(=O)NC(=S)Nc2cccnc2Cl)cc1,"inconclusive [inhibitor, single point]",

SMILES,Potency,"activity change, negative = growth inhibition"
CC(C)CC(C)N1CCC(n2nccc2NC(=O)CCc2ccccc2)CC1 (centres undefined),inactive,
CC(=O)Nc1ccc(NC(=O)CS(=O)(=O)c2cn(CC(=O)N3CCCC3)c3ccccc23)cc1,inactive,
COc1cc(OC)cc(C(=O)Nc2ccccc2N2CCOCC2)c1,"inconclusive [inhibitor, single point]",
CC1(C(=O)Nc2cccc(Oc3ccccc3)c2)CCN1Cc1ccccc1OC(F)F (centres undefined),"inconclusive [inhibitor, single point]",
CCCn1cc(SCC(=O)NC2CCCC2)c2ccccc21,"inconclusive [inhibitor, single point]",
CC(C)C(N)c1csc(Nc2cc(Oc3ccccc3)ncn2)n1 (centres undefined),"inconclusive [inhibitor, single point]",
COc1ccccc1N1C(=O)c2ccccc2NC1c1ccc(O)cc1 (centres undefined),"inconclusive [inhibitor, single point]",
CC(C(=O)Nc1nccs1)N1C(=O)c2ccccc2S1(=O)=O (centres undefined),inactive,
CC(=O)c1cccc(NC(=O)CCNS(=O)(=O)c2cccc(C(C)=O)c2)c1,inactive,
Cc1c(Cl)cccc1NC(=S)N1CCCCCC1,"inconclusive [inhibitor, single point]",
Cc1cccc(-n2c(O)c(C=NC3CCS(=O)(=O)C3)c3ccccc3c2=O)c1 (centres undefined),active: 13 µM,
Cc1ccc(C)c(CN2CCC(CNC(=O)Nc3ccc(C)c(C)c3)CC2)c1,"inconclusive [inhibitor, single point]",
Cc1cccc(CCNC(=O)c2ccc3c(c2)nc2n3CCC(C)C2)c1 (centres undefined),"inconclusive [inhibitor, single point]",
COc1ccc(F)cc1-c1cc(C(=O)NCc2ccc(F)cc2)[nH]n1,"inconclusive [inhibitor, partial curve]",
CCOC(=O)c1c(NC(=O)/C=C/C(=O)O)sc(C)c1-c1ccc(C(C)(C)C)cc1,active: 13 µM,
COc1ccccc1NC(=O)Nc1nc(CC(=O)N2CCN(c3ccccc3F)CC2)cs1,"inconclusive [inhibitor, single point]",
COc1cc2c(cc1OC)C(=Cc1ccc(N(C)C)cc1)C=C2,"inconclusive [inhibitor, single point]",
CCc1cccc(C)c1NC(=O)Cn1c(=O)n(-c2ccc(C)cc2)c(=O)c2c1cnn2C,inactive,
O=S(=O)(c1ccc(Cl)cc1)c1nc(-c2cccc(Br)c2)oc1NCc1ccccc1,"inconclusive [inhibitor, single point]",
COc1ccc(C(CC(=O)N2CCN(c3ccccc3)CC2)c2c(OC)cc(OC)c3ccc(=O)oc23)cc1 (centres undefined),active: 20.6 µM,
Cc1ccc2cc(CN(C(=O)c3ccco3)c3ccccc3)c(=O)[nH]c2c1,,inconclusive: -30.4% [inhibitor]
O=C(Nc1ccc(Oc2ccccc2)cc1)c1csc(COCCO)n1,"inconclusive [inhibitor, single point]",
